Measured values published in the antibiotic and cytotoxicity screens of Wong et al. (2023).
The other results are listed elsewhere or left out.

Columns and labels:
HSkMC = human skeletal muscle cells; assay: cytotoxicity call (relative viability < 0.9); settings: 10 µM
S. aureus RN4220 = assay: growth inhibition call (relative growth <= 0.2); settings: 50 µM

| SMILES | cytotoxicity call (HSkMC) | growth inhibition call (S. aureus RN4220) |
| --- | --- | --- |
| C[C@@H]1CCCCO[C@@H](CN(C)S(=O)(=O)c2ccccc2)[C@@H](C)CN([C@@H](C)CO)C(=O)c2cc(NS(=O)(=O)c3cn(C)cn3)ccc2O1 | inactive | inactive |
| C[C@@H]1CN([C@@H](C)CO)S(=O)(=O)c2ccc(C#Cc3ccccc3F)cc2O[C@H]1CN(C)C(=O)Cc1cccnc1 | inactive | inactive |
| CS(=O)(=O)c1ccc(C(O)C(CO)NC(=O)C(Cl)Cl)cc1 (stereo unspecified) | inactive | inactive |
| C=c1ccccc1=C1NN=C(CN2CCCC2)O1 | inactive | inactive |
| N[C@H](c1ccc2c(c1)OCCO2)c1ccco1 | inactive | inactive |
| O=C(NCCn1ncc2c(=O)n(Cc3ccccc3)cnc21)c1ccc(S(=O)(=O)N2CCOCC2)cc1 | inactive | inactive |
| C[C@H](CO)N1C[C@H](C)[C@@H](CN(C)C(=O)Nc2ccc(C(F)(F)F)cc2)Oc2ccc(NC(=O)Nc3cccc4ccccc34)cc2CC1=O | inactive | inactive |
| COCC(=O)N1C[C@@H](C)[C@H](OC)CN(C)C(=O)c2cc(NC(=O)c3ccc(F)cc3)ccc2OC[C@@H]1C | inactive | inactive |
| Cc1ccc(S(=O)(=O)Nc2ccc3c(c2)C(=O)N([C@@H](C)CO)C[C@H](C)[C@@H](CN(C)S(C)(=O)=O)O3)cc1 | inactive | inactive |
| COc1ccc([Si](C)(C)[C@@H]2[C@@H](CC(=O)N3Cc4ccccc4C[C@H]3CO)O[C@]3(C(=O)N(Cc4ccc(N5C(=O)c6cccc7cccc5c67)cc4)c4ccccc43)[C@H]2C)cc1 | inactive | inactive |
| C[C@@H]1CN([C@H](C)CO)C(=O)c2cc(C#CC3(O)CCCC3)cnc2O[C@H]1CN(C)C(=O)Cc1ccccc1 | inactive | inactive |
| COc1ccc(S(=O)(=O)N[C@H]2CC[C@H](CC(=O)N3CCC(Cc4ccccc4)CC3)O[C@@H]2CO)cc1 | inactive | inactive |
| C[C@H](CO)N1C[C@H](C)[C@@H](CN(C)S(=O)(=O)c2ccc(Cl)cc2)OCCCC[C@H](C)Oc2ccc(NS(=O)(=O)c3ccc(F)cc3)cc2C1=O | inactive | inactive |
| CC(C)CC#Cc1ccc2c(c1)O[C@@H](CN(C)S(=O)(=O)c1cccc(F)c1)[C@H](C)CN([C@@H](C)CO)S2(=O)=O | inactive | inactive |
| C[C@@H]1CCCCO[C@H](CN(C)C(=O)Nc2ccc(F)cc2)[C@H](C)CN([C@@H](C)CO)C(=O)c2cc(NC(=O)c3ccccc3)ccc2O1 | inactive | inactive |
| S=C1NCNCN1 | inactive | inactive |
| COCC#Cc1ccc([C@H]2[C@@H](CO)N3C(=O)CN(C(=O)C4CCOCC4)C[C@@H]23)cc1 | inactive | inactive |
| CC(C)NC(=O)Nc1ccc2c(c1)CC(=O)N([C@@H](C)CO)C[C@H](C)[C@@H](CN(C)S(=O)(=O)c1ccccc1)O2 | inactive | inactive |
| C[C@@H]1CN([C@H](C)CO)C(=O)c2cc(C#Cc3cccc(F)c3)cnc2O[C@@H]1CN(C)C(=O)C1CCOCC1 | inactive | inactive |
| C[C@H](CO)N1C[C@H](C)[C@@H](CN(C)C(=O)Nc2ccc3c(c2)OCO3)Oc2c(NC(=O)C3CCOCC3)cccc2C1=O | inactive | inactive |
| C[C@@H]1CCCCO[C@H](CN(C)C(=O)Cc2ccccc2)[C@@H](C)CN([C@H](C)CO)C(=O)c2cc(NC(=O)Nc3ccc4c(c3)OCO4)ccc2O1 | inactive | inactive |
| C[C@H]1CC=CC[C@H](c2cccc(Cl)c2)NC(=O)[C@H](Cc2ccccc2)N(C)C(=O)c2ccccc2O1 | inactive | inactive |
| O=c1c(O)c(-c2ccc(O)c(O)c2)oc2cc(O)cc(O)c12 | inactive | inactive |
| CN1CCN(C(=O)C[C@@H]2CC[C@@H]3[C@H](COC[C@H](O)CN3C(=O)Nc3cc(Cl)cc(Cl)c3)O2)CC1 | inactive | inactive |
| C[C@H](O)C#Cc1ccc2c(c1)O[C@@H](CN(C)C(=O)c1ccncc1)[C@H](C)CN([C@@H](C)CO)S2(=O)=O | inactive | inactive |
| C[C@@H]1CN([C@@H](C)CO)C(=O)c2cc(NC(=O)Nc3ccc(C(F)(F)F)cc3)ccc2O[C@@H]1CN(C)S(C)(=O)=O | inactive | inactive |
| Oc1ccc(C=Cc2cc(O)cc(O)c2)cc1 | inactive | inactive |
| C[C@@H]1CCCCO[C@@H](CN(C)S(C)(=O)=O)[C@H](C)CN([C@@H](C)CO)C(=O)c2cc(NS(=O)(=O)c3ccccc3)ccc2O1 | inactive | inactive |
